Assay results reported in the BET-seq Pho4 binding data (Le et al. 2018).
Some of the results follow. The energies were worked out here from pooled read counts, against the library average; single values are noisy.

What follows are sequences tested against T1, Pho4 (S. cerevisiae) (UniProt P07270) (assay: relative binding free energy (BET-seq); higher = weaker binding). Settings: reference: library average.
T1 sequence: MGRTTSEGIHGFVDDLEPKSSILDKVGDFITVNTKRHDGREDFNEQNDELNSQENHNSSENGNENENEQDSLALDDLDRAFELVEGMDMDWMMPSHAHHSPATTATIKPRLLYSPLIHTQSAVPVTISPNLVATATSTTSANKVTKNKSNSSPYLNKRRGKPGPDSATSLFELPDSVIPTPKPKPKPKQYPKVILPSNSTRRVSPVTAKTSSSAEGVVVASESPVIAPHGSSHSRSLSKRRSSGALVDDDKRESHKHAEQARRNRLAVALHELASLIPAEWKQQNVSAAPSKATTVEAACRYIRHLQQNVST
With AAGGACACGTGAGGGT the “relative binding free energy” value was 0.25 kcal/mol.
With TCATGCACGTGTCTTG the “relative binding free energy” value was 0.02 kcal/mol.
With TGACACACGTGGAAGG the “relative binding free energy” value was 0.09 kcal/mol.
With AGGTACACGTGGTGGT the “relative binding free energy” value was -0.01 kcal/mol.
With TCGTGCACGTGTAGGG the “relative binding free energy” value was -0.1 kcal/mol.
In the case of AGAGGCACGTGGGTAC, the “relative binding free energy” value was -0.3 kcal/mol.
In the case of GTTTACACGTGTGACT, the “relative binding free energy” value was 0.16 kcal/mol.
TGGAGCACGTGGAAGC was tested, and the “relative binding free energy” value was 0.03 kcal/mol.
With TGTGACACGTGGGAGG the “relative binding free energy” value was -0.08 kcal/mol.
CGGAACACGTGGAGGG was tested, and the “relative binding free energy” value was -0.18 kcal/mol.
With AGGGACACGTGTCGTG the “relative binding free energy” value was -0.1 kcal/mol.
With TGGCTCACGTGGACGT the “relative binding free energy” value was 0.35 kcal/mol.
In the case of GTTTGCACGTGCACGT, the “relative binding free energy” value was 0.02 kcal/mol.
With CTTGTCACGTGTGTTC the “relative binding free energy” value was 0.14 kcal/mol.
CGAGTCACGTGGAAGT was tested, and the “relative binding free energy” value was 0.14 kcal/mol.
TTGTACACGTGGATAA was tested, and the “relative binding free energy” value was 0.09 kcal/mol.
In the case of AGTAGCACGTGTTGTA, the “relative binding free energy” value was -0.08 kcal/mol.
For TTATTCACGTGGCGCT, the “relative binding free energy” value was 0.08 kcal/mol.
With GGGGTCACGTGTAACA the “relative binding free energy” value was 0.17 kcal/mol.
For GCTGTCACGTGGGATG, the “relative binding free energy” value was 0.06 kcal/mol.
In the case of TTGTGCACGTGTAAAG, the “relative binding free energy” value was 0.03 kcal/mol.
For GGGGTCACGTGCGTAG, the “relative binding free energy” value was 0.03 kcal/mol.
TATAACACGTGTGGCG was tested, and the “relative binding free energy” value was 0.05 kcal/mol.
For GTCAGCACGTGGGTAT, the “relative binding free energy” value was -0.18 kcal/mol.
For TATGTCACGTGATCGT, the “relative binding free energy” value was 0.12 kcal/mol.
In the case of GGAGTCACGTGATAGA, the “relative binding free energy” value was 0.19 kcal/mol.
For TAATTCACGTGCATAT, the “relative binding free energy” value was 0.24 kcal/mol.
ATACTCACGTGGTGGA was tested, and the “relative binding free energy” value was 0.15 kcal/mol.
GGGCGCACGTGGTGTT was tested, and the “relative binding free energy” value was -0.13 kcal/mol.
With GTTGTCACGTGTGTGT the “relative binding free energy” value was 0.12 kcal/mol.
For TATTTCACGTGTAAGT, the “relative binding free energy” value was 0.34 kcal/mol.
TTGTTCACGTGAGACA was tested, and the “relative binding free energy” value was 0.44 kcal/mol.
In the case of TGAAACACGTGGGTAG, the “relative binding free energy” value was -0.09 kcal/mol.
With GATTACACGTGGCTTT the “relative binding free energy” value was 0.13 kcal/mol.
ATCGGCACGTGTTGGT was tested, and the “relative binding free energy” value was -0.09 kcal/mol.
For CTGGTCACGTGGGGTC, the “relative binding free energy” value was 0.02 kcal/mol.
For CACGGCACGTGGGGGG, the “relative binding free energy” value was -0.37 kcal/mol.
For GGTTTCACGTGTATTT, the “relative binding free energy” value was 0.26 kcal/mol.
TCTGGCACGTGGTGGG was tested, and the “relative binding free energy” value was -0.08 kcal/mol.
GGGGCCACGTGATGTT was tested, and the “relative binding free energy” value was 0.09 kcal/mol.
For TGTAGCACGTGCTGGA, the “relative binding free energy” value was -0.1 kcal/mol.
For GGCTTCACGTGGGAGG, the “relative binding free energy” value was 0.23 kcal/mol.
In the case of ATTTACACGTGAGCGT, the “relative binding free energy” value was 0.18 kcal/mol.
For GATTACACGTGATAGG, the “relative binding free energy” value was 0.25 kcal/mol.
AGGGGCACGTGTAGAA was tested, and the “relative binding free energy” value was -0.07 kcal/mol.
For GTTGACACGTGTTTGC, the “relative binding free energy” value was 0.14 kcal/mol.
In the case of ATAACCACGTGGGTTT, the “relative binding free energy” value was -0.17 kcal/mol.
For GAGATCACGTGATGGG, the “relative binding free energy” value was 0.25 kcal/mol.
GCTGTCACGTGTGGAG was tested, and the “relative binding free energy” value was 0.16 kcal/mol.
With CAGGTCACGTGGGCGT the “relative binding free energy” value was -0.21 kcal/mol.
ATCTTCACGTGAGTGG was tested, and the “relative binding free energy” value was 0.43 kcal/mol.
AAAGACACGTGGAGTT was tested, and the “relative binding free energy” value was 0.19 kcal/mol.
For TTGGCCACGTGGGCTG, the “relative binding free energy” value was -0.32 kcal/mol.
AGAGGCACGTGGGTGG was tested, and the “relative binding free energy” value was -0.29 kcal/mol.
For GATGGCACGTGGGGCA, the “relative binding free energy” value was -0.22 kcal/mol.
In the case of AGGTTCACGTGCTTTT, the “relative binding free energy” value was 0.22 kcal/mol.
For CTCTTCACGTGTTTGG, the “relative binding free energy” value was 0.04 kcal/mol.
In the case of GGTGGCACGTGATATG, the “relative binding free energy” value was -0.02 kcal/mol.
With GTTGTCACGTGGTACT the “relative binding free energy” value was 0.03 kcal/mol.
In the case of ATGGGCACGTGGAGCA, the “relative binding free energy” value was -0.09 kcal/mol.
With CTGTGCACGTGTGATA the “relative binding free energy” value was 0.05 kcal/mol.
TAGTACACGTGAGGAG was tested, and the “relative binding free energy” value was 0.38 kcal/mol.
For GTTGACACGTGATTAA, the “relative binding free energy” value was 0.13 kcal/mol.
In the case of CTTGACACGTGTTGGG, the “relative binding free energy” value was 0 kcal/mol.
In the case of AAAGACACGTGGGGGA, the “relative binding free energy” value was -0.07 kcal/mol.
For CTAGACACGTGGTAGG, the “relative binding free energy” value was -0.12 kcal/mol.
With ATTGACACGTGTGATG the “relative binding free energy” value was -0.07 kcal/mol.
For TGTGTCACGTGAATCG, the “relative binding free energy” value was 0.41 kcal/mol.
For TTTTTCACGTGAGAGC, the “relative binding free energy” value was 0.39 kcal/mol.
With GGTTTCACGTGTTTGT the “relative binding free energy” value was 0.22 kcal/mol.
For TGTGTCACGTGTACTA, the “relative binding free energy” value was 0.03 kcal/mol.
ATGGTCACGTGCAGAG was tested, and the “relative binding free energy” value was 0.02 kcal/mol.
For TCTGTCACGTGGTTCG, the “relative binding free energy” value was 0.11 kcal/mol.
For GGGTTCACGTGCCGGG, the “relative binding free energy” value was 0.27 kcal/mol.
In the case of CTAGTCACGTGTATTG, the “relative binding free energy” value was 0.11 kcal/mol.
TTACGCACGTGGTGGA was tested, and the “relative binding free energy” value was -0.19 kcal/mol.
With TGGATCACGTGGACGT the “relative binding free energy” value was 0.12 kcal/mol.
With GGCTGCACGTGAGGTA the “relative binding free energy” value was 0.19 kcal/mol.
In the case of ATATACACGTGTCGGA, the “relative binding free energy” value was 0.14 kcal/mol.
TGAGTCACGTGAGTGG was tested, and the “relative binding free energy” value was 0.31 kcal/mol.
AGATGCACGTGGTGAT was tested, and the “relative binding free energy” value was -0.12 kcal/mol.
TTGGGCACGTGCGGAA was tested, and the “relative binding free energy” value was -0.27 kcal/mol.
TGGTACACGTGGGTCT was tested, and the “relative binding free energy” value was -0.17 kcal/mol.
For TTTGTCACGTGACTTA, the “relative binding free energy” value was 0.22 kcal/mol.
In the case of GAGGTCACGTGCTGTG, the “relative binding free energy” value was 0.13 kcal/mol.
With TGAGGCACGTGAGTCG the “relative binding free energy” value was 0.18 kcal/mol.
TTCAGCACGTGTGTGG was tested, and the “relative binding free energy” value was -0.06 kcal/mol.
For GGGGGCACGTGACCGG, the “relative binding free energy” value was -0.06 kcal/mol.
For TTGGGCACGTGAATAA, the “relative binding free energy” value was 0.18 kcal/mol.
For AGCTTCACGTGTTCGT, the “relative binding free energy” value was 0.33 kcal/mol.
With GTAGTCACGTGTATGT the “relative binding free energy” value was 0.1 kcal/mol.
With GGGGGCACGTGGGCCG the “relative binding free energy” value was -0.13 kcal/mol.
With AAAGTCACGTGGTGAA the “relative binding free energy” value was 0.06 kcal/mol.
With ATTTACACGTGTCGTG the “relative binding free energy” value was -0.01 kcal/mol.
With CGAATCACGTGGGGGA the “relative binding free energy” value was -0.07 kcal/mol.
With TCGAGCACGTGGGGCT the “relative binding free energy” value was -0.32 kcal/mol.
With AACTGCACGTGTGGTG the “relative binding free energy” value was 0.05 kcal/mol.
CGGTACACGTGTGTAA was tested, and the “relative binding free energy” value was 0.19 kcal/mol.
With TAGTACACGTGAGAGT the “relative binding free energy” value was 0.22 kcal/mol.
TATAACACGTGTATTG was tested, and the “relative binding free energy” value was -0.01 kcal/mol.
For GGTCGCACGTGGTTCG, the “relative binding free energy” value was -0.02 kcal/mol.
For AAAAGCACGTGATGGG, the “relative binding free energy” value was 0.15 kcal/mol.
CTGGTCACGTGTGTGC was tested, and the “relative binding free energy” value was 0.17 kcal/mol.
In the case of AAGCGCACGTGGGGCC, the “relative binding free energy” value was 0.1 kcal/mol.
For TTTGACACGTGTCGGG, the “relative binding free energy” value was 0.1 kcal/mol.
GTGATCACGTGCGGGG was tested, and the “relative binding free energy” value was 0.13 kcal/mol.
With GGTGGCACGTGGTTAC the “relative binding free energy” value was -0.16 kcal/mol.
CGTGTCACGTGGGTTA was tested, and the “relative binding free energy” value was -0.05 kcal/mol.
With TGTGTCACGTGATTAT the “relative binding free energy” value was 0.22 kcal/mol.
With CAAGGCACGTGGTAGT the “relative binding free energy” value was -0.23 kcal/mol.
In the case of GGAATCACGTGGGAGC, the “relative binding free energy” value was 0.14 kcal/mol.
With GGGCTCACGTGCGGTA the “relative binding free energy” value was 0.1 kcal/mol.
For TTTTTCACGTGTGCTT, the “relative binding free energy” value was 0.28 kcal/mol.
With TGATGCACGTGGTAGT the “relative binding free energy” value was -0.05 kcal/mol.
With GAGGACACGTGTGGTG the “relative binding free energy” value was 0.13 kcal/mol.
GTGGGCACGTGGCCGG was tested, and the “relative binding free energy” value was -0.21 kcal/mol.
GCTGCCACGTGGGGCG was tested, and the “relative binding free energy” value was -0.11 kcal/mol.
For TTGTCCACGTGGAGGT, the “relative binding free energy” value was 0.01 kcal/mol.
ATGGCCACGTGGTGAG was tested, and the “relative binding free energy” value was -0.13 kcal/mol.
CTGGACACGTGGTAGT was tested, and the “relative binding free energy” value was -0.1 kcal/mol.
In the case of GGCTGCACGTGGGTAG, the “relative binding free energy” value was -0.09 kcal/mol.
With GTGAGCACGTGTTAAT the “relative binding free energy” value was -0.06 kcal/mol.
With CTTTACACGTGTTTGG the “relative binding free energy” value was 0.05 kcal/mol.
In the case of TCCGGCACGTGTTGGT, the “relative binding free energy” value was 0.01 kcal/mol.
With AGGCGCACGTGATAGG the “relative binding free energy” value was -0.03 kcal/mol.
In the case of TGGTTCACGTGACCTT, the “relative binding free energy” value was 0.49 kcal/mol.
In the case of AAATTCACGTGAGGGC, the “relative binding free energy” value was 0.38 kcal/mol.
CAGAGCACGTGGTTTG was tested, and the “relative binding free energy” value was -0.08 kcal/mol.
ATCGTCACGTGTGTGG was tested, and the “relative binding free energy” value was 0.19 kcal/mol.
For AGCTTCACGTGGGGGG, the “relative binding free energy” value was 0.11 kcal/mol.
For ATTGGCACGTGAGTAG, the “relative binding free energy” value was 0.21 kcal/mol.
In the case of CTAGTCACGTGTAATG, the “relative binding free energy” value was 0.15 kcal/mol.
For ATTAGCACGTGCTGGA, the “relative binding free energy” value was -0.15 kcal/mol.
GTCTTCACGTGTAGTG was tested, and the “relative binding free energy” value was 0.16 kcal/mol.
For CGGTTCACGTGGTGGA, the “relative binding free energy” value was 0.23 kcal/mol.
ATTGACACGTGGGTGG was tested, and the “relative binding free energy” value was -0.15 kcal/mol.
For TATGTCACGTGGGACA, the “relative binding free energy” value was -0.08 kcal/mol.
In the case of TATGGCACGTGATTAA, the “relative binding free energy” value was -0.02 kcal/mol.
In the case of GGTGCCACGTGGAGCT, the “relative binding free energy” value was -0.13 kcal/mol.
TATGCCACGTGGGTAT was tested, and the “relative binding free energy” value was -0.2 kcal/mol.
In the case of GGGTGCACGTGATACG, the “relative binding free energy” value was -0.03 kcal/mol.
For TAGAACACGTGGATGG, the “relative binding free energy” value was 0.02 kcal/mol.
ACGGTCACGTGGGCGG was tested, and the “relative binding free energy” value was -0.23 kcal/mol.
With TATATCACGTGAGTTA the “relative binding free energy” value was 0.2 kcal/mol.
With GTGTTCACGTGAGTGG the “relative binding free energy” value was 0.52 kcal/mol.
In the case of CTGCGCACGTGGTGTG, the “relative binding free energy” value was -0.23 kcal/mol.
